Experimental data published in PubChem BioAssay AID651820 (National Center for Advancing Translational Sciences (NCATS), 2012).
Out of some 340,000 compounds screened, about 12,000 (3.5%) were called active. This list was built around the results that the source calls inconclusive (neither active nor inactive); the mix of calls is not that of the screen. Calls follow the shape of the dose curve; as a rule, active = well fitted inhibition curve with a large enough effect; inconclusive = small, poorly fitted or top-dose-only effect, or another doubt; inactive = no such curve, though single readings can be large or run the other way. No potency is given beside an inconclusive call; the fits are too rough.

test: qHTS Assay for Inhibitors of Hepatitis C Virus (HCV); details: Huh7.5.1 HCVcc-Cre (HCVcc is cell-culture hepatitis C virus) infection, luciferase reporter, 44 h; activity change, negative = inhibition: at 41.8 µM (top of the series) unless noted
Method in brief: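 Luciferase read-out (15 sec integration) after a 15 min room-temperature substrate step quantifies HCVcc-Cre infection. Cells, 1,000 per well, had compound added 4 h post-plating, then virus at ~0.5 moi, and were cultured 44 h.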
% is scaled to controls: 0 for no effect and ±100 for the full control effect; potency is read from the fitted curve at half-maximal effect; tags tell the direction and shape of the fitted curve.

**Q.** With CCCCN(CC)C(=O)c1cc2cc3ccc(Cl)cc3nc2o1 as the compound, how does the Potency read?
**A.** inconclusive [inhibitor, partial curve]

**Q.** For CN(CCc1ccccc1)C(=O)c1cccc(NC(=O)Cc2cccc([N+](=O)[O-])c2)c1, which Potency is on record?
**A.** inconclusive [inhibitor, partial curve]

**Q.** For CCOc1ccccc1-c1nc(-c2cc3ccc(C)cc3[nH]c2=O)no1, which Potency is on record?
**A.** inconclusive [inhibitor, partial curve]

**Q.** For COc1ccc(CP(=O)(c2ccccc2)c2ccccc2)cc1, which “activity change, negative = inhibition” value is on record?
**A.** inactive: 10.1%

**Q.** With CCC(C)NC(=O)CC(NS(=O)(=O)c1ccc(Cl)cc1)c1ccco1 (configuration not stated) as the compound, how does the Potency read?
**A.** inconclusive [inhibitor, single point]

**Q.** With CC(=O)Nc1ccc(Sc2ncccc2C(=O)Nc2ccc(OC(F)(F)F)cc2)cn1 as the compound, how does the Potency read?
**A.** inconclusive [inhibitor, full curve]

**Q.** With Cc1ccc(NC(=S)NCCN(C2CCCCC2)C2CCCC2)cc1C as the compound, how does the Potency read?
**A.** inconclusive [inhibitor, single point]

**Q.** Which “activity change, negative = inhibition” value does the source give for c1ccc2c(c1)nc(N1CCOCC1)c1nnnn12 here?
**A.** inactive: 13.6%

**Q.** With CCN(CC)S(=O)(=O)c1cc(NC(=O)C(C)Nc2ccccc2N2CCOCC2)ccc1C (configuration not stated) as the compound, how does the Potency read?
**A.** inconclusive [inhibitor, single point]

**Q.** For CCCCCc1cc(=O)oc2c(C(CCN(CC)CC)c3ccc(N(C)C)cc3)c(OC)cc(OC)c12 (configuration not stated), which Potency is on record?
**A.** inconclusive [inhibitor, single point]

**Q.** With Cc1cc(Cl)c2oc(C(=O)N(C)Cc3cc(C)[nH]n3)c(C)c2c1 as the compound, how does the Potency read?
**A.** inconclusive [inhibitor, single point]

**Q.** With COc1ccc(-n2c(SCC(=O)N3CCCCC3)nc(O)cc2=O)cc1 as the compound, how does the “activity change, negative = inhibition” value read?
**A.** inactive: 8.48%

**Q.** Which “activity change, negative = inhibition” value does the source give for O=C(Cn1cnc2c(nnn2Cc2ccccc2)c1=O)c1ccccc1 here?
**A.** inactive: -1.46%

**Q.** For COC(=O)[C@@]12OC[C@]34[C@H]([C@@H](O)[C@@H]1O)[C@@]1(C)C(=O)C(O[C@@H]5OC(CO)[C@@H](O)[C@@H](O)[C@@H]5O)=C[C@@H](C)[C@@H]1C[C@H]3OC(=O)[C@H](OC(=O)/C=C(\C)C(C)(C)OC(C)=O)[C@@H]24 (some centres not stated), which Potency is on record?
**A.** active: 11.2 µM

**Q.** For Cc1cc(C)nc(-n2nc(C)cc2Nc2ccccc2)n1, which Potency is on record?
**A.** active: 10 µM

**Q.** With Cc1nnc(SCC(=O)NC(C)(C)C)n1CCc1ccccc1 as the compound, how does the “activity change, negative = inhibition” value read?
**A.** inactive: 9.58%

**Q.** With NS(=O)(=O)c1ccc(NC(=O)COC(=O)C2(c3ccc(F)cc3)CCCC2)cc1 as the compound, how does the Potency read?
**A.** inconclusive [inhibitor, single point]

**Q.** Which Potency does the source give for O=C(c1ccc2c(c1)OCO2)C1CCCN(Cc2ccc(OC(F)F)cc2)C1 (configuration not stated) here?
**A.** active: 12.6 µM

**Q.** With CC(=O)N1CCN(CC(=O)Nc2ccc3c(c2)CCC3)CC1 as the compound, how does the “activity change, negative = inhibition” value read?
**A.** inactive: -0.545%

**Q.** For CC(C)OC(=O)c1ccc(Cn2nnc3ccccc3c2=O)cc1, which Potency is on record?
**A.** inconclusive [inhibitor, partial curve]

**Q.** With CCOc1ccc2nc(-c3ccccc3)[nH]c2c1 as the compound, how does the Potency read?
**A.** inconclusive [inhibitor, partial curve]

**Q.** For COc1ccc(-n2c(C)cc(/C=N/Nc3nnc(C)n3N)c2C)cc1, which Potency is on record?
**A.** active: 11.2 µM

**Q.** With Cc1[nH]c2ccc(C(=O)NCCCN3CCN(C)CC3)cc2c1C as the compound, how does the “activity change, negative = inhibition” value read?
**A.** inactive: 2.63%

**Q.** Which Potency does the source give for COC(=O)c1ccc(COc2ccccc2/C=N/NS(=O)(=O)c2ccccc2)cc1 here?
**A.** active: 10 µM

**Q.** Which “activity change, negative = inhibition” value does the source give for COc1cc(OC)c(OC)cc1CNCCc1cccc(F)c1 here?
**A.** inactive: 7.42%

**Q.** For Cc1ccc(N(CC(=O)N/N=C/c2ccc(OC3CSC3)cc2)S(=O)(=O)c2ccccc2)c(C)c1, which Potency is on record?
**A.** inconclusive [inhibitor, single point]

**Q.** For CCN(CC)CCN(C(=O)c1cccc([N+](=O)[O-])c1)c1nc2ccc(OC)cc2s1, which Potency is on record?
**A.** inconclusive [inhibitor, partial curve, poor fit]

**Q.** For COc1ccc(S(=O)(=O)N2CCCCC2)cc1NC(=O)c1cc([N+](=O)[O-])ccc1N1CCOCC1, which Potency is on record?
**A.** active: 7.94 µM

**Q.** For CC/C(=N\NC(=O)c1ccc(N(C)C)cc1)c1ccccc1, which “activity change, negative = inhibition” value is on record?
**A.** inactive: -8.91%

**Q.** With OCCN1CCN(c2nc(-c3ccccc3)nc3c2oc2ccccc23)CC1 as the compound, how does the Potency read?
**A.** inconclusive [inhibitor, single point]

**Q.** With COc1cccc(C(=O)Nc2cc(C)ccc2NC(=O)COc2ccccc2)c1 as the compound, how does the Potency read?
**A.** inconclusive [inhibitor, partial curve]

**Q.** Which Potency does the source give for COc1cc(NC(=O)c2cc(-c3ccco3)on2)cc(OC)c1OC here?
**A.** inconclusive [inhibitor, full curve, poor fit]

**Q.** With Cc1ccc(C)c(N(Cc2cc3ccc(C)cc3[nH]c2=O)C(=O)c2ccco2)c1 as the compound, how does the Potency read?
**A.** inconclusive [inhibitor, single point]

**Q.** With C=CCn1c(SCC(=O)N2CCc3ccccc3C2)nc2ccccc2c1=O as the compound, how does the Potency read?
**A.** inconclusive [inhibitor, single point]

**Q.** For O=C(c1ccccc1)N1CCN(c2ncnc3sc4c(c23)CCC4)CC1, which Potency is on record?
**A.** inconclusive [inhibitor, single point]

**Q.** Which Potency does the source give for CC1(c2ccc([N+](=O)[O-])cc2)NC(=O)N(CC(=O)Nc2ccc(N3CCCCC3)cc2)C1=O (configuration not stated) here?
**A.** inconclusive [inhibitor, full curve]

**Q.** For COC(=O)c1ccc(CNC(=O)COC(=O)c2cc(Cl)ccc2O)cc1, which Potency is on record?
**A.** inconclusive [inhibitor, single point]

**Q.** For CC1Cc2cc(S(=O)(=O)N3CCC(C(=O)N4CCN(c5ccccc5F)CC4)CC3)ccc2N1C(=O)C1CC1 (configuration not stated), which Potency is on record?
**A.** inconclusive [inhibitor, single point]

**Q.** Which Potency does the source give for CC1CCCN(c2nc(NCc3ccco3)nc(N)c2[N+](=O)[O-])C1 (configuration not stated) here?
**A.** inconclusive [inhibitor, single point]

**Q.** Which Potency does the source give for COc1ccc(NC(=O)CN(C)C2CCCCC2)cc1Cl here?
**A.** inconclusive [inhibitor, single point]

**Q.** Which “activity change, negative = inhibition” value does the source give for COc1ccc(C(=O)Nc2ccc(N3CCN(C(=O)C(C)C)CC3)cc2)cc1[N+](=O)[O-] here?
**A.** inactive: -6.84%

**Q.** For COc1ccccc1OCC(=O)Nc1sc2c(c1C(N)=O)CCC2, which Potency is on record?
**A.** inconclusive [inhibitor, partial curve]

**Q.** For O=C(NCCCN1CCCC1)c1cc2c(Cl)nc3ccccc3c2s1, which Potency is on record?
**A.** active: 17.8 µM

**Q.** For CC1=NN(c2ccccc2)C(=O)/C1=C\N(O)c1ccccc1, which “activity change, negative = inhibition” value is on record?
**A.** inactive: -3.27%

**Q.** With CCN(CC)C(=O)Oc1ccc2oc(=O)cc(-c3cc4cccc(OC)c4o3)c2c1 as the compound, how does the Potency read?
**A.** active: 11.2 µM

**Q.** With O=C(OCc1c(-c2ccccc2)ncc2ccccc12)c1ccccc1C(F)(F)F as the compound, how does the activity change, negative = inhibition read?
**A.** inactive: 48.5% [at 8.37 µM]

**Q.** Which Potency does the source give for CC1CCN(S(=O)(=O)c2ccc(NC(=O)c3ccccc3F)cc2)CC1 here?
**A.** inconclusive [inhibitor, single point]

**Q.** For CCc1ccc2oc(=O)cc(CN3CCN(CCO)CC3)c2c1, which “activity change, negative = inhibition” value is on record?
**A.** inactive: -4.76%

**Q.** With CC(=O)c1sc(NC(=O)c2ccc(Cl)cc2)nc1C as the compound, how does the Potency read?
**A.** inconclusive [inhibitor, full curve]

**Q.** Which Potency does the source give for CC(=O)Nc1cccc(OCC(=O)/C=C2\N(C)c3ccccc3C2(C)C)c1 here?
**A.** inconclusive [inhibitor, single point]

**Q.** With CCN(CC)C(=O)c1sc2nc(N3CCOCC3)c3c(c2c1N)CCCC3 as the compound, how does the Potency read?
**A.** inconclusive [inhibitor, full curve]

**Q.** With CCOc1ccc(C(C(=O)NC2CCCC2)N(CCCO)C(=O)c2ccc(-c3ccccc3)[nH]2)cc1 (configuration not stated) as the compound, how does the “activity change, negative = inhibition” value read?
**A.** inactive: -6.89%

**Q.** Which Potency does the source give for O=S(=O)(c1ccccc1F)N1CCN(c2nc(-c3cccnc3)nc3ccccc23)CC1 here?
**A.** inconclusive [inhibitor, partial curve]

**Q.** For COc1cccc(OCCn2c(C)c(/C=N/n3cnnc3)c3ccccc32)c1, which Potency is on record?
**A.** inconclusive [inhibitor, single point]

**Q.** For CN(CCC1CCOCC1)Cc1cn[nH]c1-c1ccc(-c2ccccc2)cc1, which Potency is on record?
**A.** inconclusive [inhibitor, single point]

**Q.** With CC(=O)N1C(O)CC(C)N1c1ccccc1 (configuration not stated) as the compound, how does the “activity change, negative = inhibition” value read?
**A.** inactive: 4.39%

**Q.** With COc1ccc(CN(C)C(=O)C(Cc2ccccc2)NC(=O)c2ccccc2)c(OC)c1 (configuration not stated) as the compound, how does the Potency read?
**A.** inconclusive [inhibitor, partial curve]

**Q.** Which Potency does the source give for CCOC(=O)c1c(NC(=O)CCN2C(=O)c3cccc([N+](=O)[O-])c3C2=O)sc(C(=O)OC(C)C)c1C here?
**A.** inconclusive [inhibitor, single point]

**Q.** Which “activity change, negative = inhibition” value does the source give for CCCCCCSc1cccc(-c2nc3ccc(C)cn3c2NCc2ccccc2)c1 here?
**A.** inactive: 2.53%

**Q.** For CC(=O)c1cn(CCCOc2ccccc2)c2ccccc12, which Potency is on record?
**A.** active: 7.08 µM

**Q.** With CN(C)CCN(C(=O)c1cccc2ccccc12)c1nc2cc3c(cc2s1)OCO3 as the compound, how does the Potency read?
**A.** active: 10 µM

**Q.** For CCCN(CCC)CCCNc1ccc(C(=O)Nc2cccc(OC)c2)cc1[N+](=O)[O-], which Potency is on record?
**A.** inconclusive [inhibitor, full curve]

**Q.** For CCOC(=O)C1(Cc2cccc(F)c2)CCN(Cc2nc(CC)[nH]c2C)CC1, which Potency is on record?
**A.** inconclusive [inhibitor, single point]

**Q.** With O=C(c1cc(C(=O)N2CCOCC2)c2nc3ccccc3n2c1)c1cc(Cl)cc(Cl)c1O as the compound, how does the Potency read?
**A.** inconclusive [inhibitor, partial curve]

**Q.** Which Potency does the source give for CCCc1c(C(=O)N/N=C/c2ccc(OC)c(OCc3ccccc3)c2)nnn1-c1nonc1N here?
**A.** inconclusive [inhibitor, partial curve, poor fit]

**Q.** Which Potency does the source give for CN1CCN(S(=O)(=O)c2cccc(C(=O)N(Cc3nnc(-c4ccc(Cl)cc4)o3)C3CC3)c2)CC1 here?
**A.** inconclusive [inhibitor, full curve, poor fit]

**Q.** Which Potency does the source give for COc1ccc(C(=O)Nc2ccc(Cl)cc2C(=O)NCc2ccco2)cc1OC here?
**A.** inconclusive [inhibitor, partial curve, poor fit]
